# PubChem BioAssay AID504832 (National Center for Advancing Translational Sciences (NCATS), 2011)
# The whole screen tested about 310,000 compounds, of which about 18,000 (5.8%) were called active. The inconclusive results got no clear call from the source; some entries with a clear call stand among them for comparison. The call rests on the fitted dose curve; in most records, active means well fitted inhibition curve with a large enough effect; inconclusive means small, poorly fitted or top-dose-only effect, or another doubt; inactive means no such curve, though single readings can be large or run the other way. Potencies of inconclusive entries are left out as doubtful fits.
# Test: Primary qHTS for delayed death inhibitors of the malarial parasite plastid, 48 hour incubation
# Conditions: P. falciparum luciferase growth in erythrocytes; series mostly up to 28.7 µM
# In short: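 First compound was added to culture medium, then infected red cells at 0.1% parasitemia and 2% hematocrit (final). After incubation at 37 C under 5% CO2, luciferase detection reagent was dispensed and light output recorded.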
# Potency means the concentration at half of the fitted maximal effect; tags describe the fitted curve by direction and shape.
row,SMILES,Potency
1,O=C(NCCCn1ccnc1)c1ccc(Cl)s1,inactive
2,Cc1cc2cc(CNC(=O)c3ccc(S(=O)(=O)N(C)C)cc3)ccc2n1C,"inconclusive [inhibitor, partial curve]"
3,CN(Cc1ccccc1F)c1nc(-c2cccnc2)nc2ccccc12,"inconclusive [inhibitor, full curve, poor fit]"
4,CCOC(=O)CSc1nc2c(sc3ccc([N+](=O)[O-])cc32)c(=O)n1Cc1ccco1,active: 6.57 µM
5,COC(=O)c1cc(C(=O)N2CCN(c3cccc(C)c3C)CC2)cc([N+](=O)[O-])c1,inactive
6,CCOC(=O)CSC1=C(C#N)C(c2ccccc2)C(C(C)=O)=C(C)N1 (configuration not stated),"inconclusive [inhibitor, single point]"
7,NCCCC(O)(P(=O)(O)O)P(=O)(O)O,inactive
8,CCOc1ccc(CNC(=O)C2CCN(c3nnc(C)c4c(C)n(-c5ccc(C)cc5)nc34)CC2)cc1,"inconclusive [inhibitor, single point]"
9,Nc1cc(N2CCCC2)c(Cl)cc1[N+](=O)[O-],"inconclusive [inhibitor, single point]"
10,CCN(CC)C(=O)c1cc2c(=O)oc3ccccc3c2s1,inactive
11,COc1ccc(-c2nc(-c3ccccn3)nc(N3CCN(C)CC3)c2C#N)cc1,"inconclusive [inhibitor, single point]"
12,CC1Cc2ccccc2N1C(=O)C1CC(=O)N(c2ccccc2)C1 (configuration not stated),inactive
13,CCCCSc1nnc([C@H](CC(C)C)NC(=O)OC(C)(C)C)o1,"inconclusive [inhibitor, partial curve]"
14,CCCCSCCCNC(=O)C1CCC(CNS(=O)(=O)c2ccccc2)CC1 (configuration not stated),"inconclusive [inhibitor, single point]"
15,O=C(NCC(c1ccco1)N1CCc2ccccc21)C(=O)Nc1ccccc1F (configuration not stated),"inconclusive [inhibitor, single point]"
16,Cc1ccc(-c2nn(CCC(=O)Nc3cccnc3)c(=O)c3ccccc23)cc1,"inconclusive [inhibitor, partial curve]"
17,c1ccc(-n2ncc3c(NC4CCCCCC4)ncnc32)cc1,inactive
18,CCC(c1nnnn1Cc1ccco1)N(CCc1ccccc1)Cc1cc2ccc(OC)cc2[nH]c1=O (configuration not stated),active: 5.86 µM
19,CCOC(=O)c1cn2nc(Oc3ccc(C(=O)OC)cc3)ccc2n1,"inconclusive [inhibitor, partial curve, poor fit]"
20,COc1ccc(C(=O)NCc2nnc(SCC(=O)Nc3ccc4c(c3)OCO4)o2)cc1,inactive
21,CC1C(=O)N2CCCc3cc(S(=O)(=O)Nc4ccccc4F)cc1c32 (configuration not stated),inactive
22,CCOC(=O)c1ccc(S(=O)(=O)N2CCN(C3CC(=O)N(c4ccccc4C(F)(F)F)C3=O)CC2)cc1 (configuration not stated),active: 13.1 µM
23,COC(=O)c1cccc(NC(=S)Nc2ccc(Cl)c(Cl)c2)c1,inactive
24,Cc1cc(Oc2ccc(-c3nnc(-c4ccccc4)o3)cc2[N+](=O)[O-])ccc1Cl,inactive

row,SMILES,Potency
1,Cc1ccccc1NC(=O)CCc1c(C)nn(-c2ccc(N3CCOCC3)nn2)c1C,"inconclusive [inhibitor, full curve, poor fit]"
2,CCCCn1c(NC(=O)c2ccco2)c(C(=O)OCC)c2nc3ccccc3nc21,"inconclusive [inhibitor, single point]"
3,O=C(NNC(=O)c1cccc2ccccc12)c1ccc2c(c1)OCO2,inactive
4,COc1ccc(NC(=O)N[C@@H](Cc2ccccc2)C(=O)NN)cc1,"inconclusive [inhibitor, single point]"
5,Cc1ccc(S(=O)(=O)c2nc(S(C)(=O)=O)sc2N2CC(C)OC(C)C2)cc1 (configuration not stated),"inconclusive [inhibitor, partial curve]"
6,O=C1CSC(=S)N1/N=C/c1ccc(Cl)c([N+](=O)[O-])c1,"inconclusive [inhibitor, partial curve, poor fit]"
7,Cc1cc(NC(=O)CCC(=O)N(Cc2ccco2)C(C(=O)NC2CCCC2)c2ccccc2)no1 (configuration not stated),"inconclusive [inhibitor, partial curve, poor fit]"
8,COc1ccc(-n2c(COc3ccccc3)nnc2SCc2ccc(C#N)cc2)cc1,active: 11.7 µM
9,CC(C)C(c1nnnn1Cc1ccco1)N1CCC(C(N)=O)CC1 (configuration not stated),"inconclusive [inhibitor, single point]"
10,Cc1cccc(NC(=O)N2CCC(C(=O)c3ccc(F)cc3)CC2)c1,inactive
11,Nc1c(C(=O)Nc2ccc(Br)cc2)sc2nc(-c3ccco3)ccc12,inactive
12,O=C(CCC1CCCC1)Nc1cc(Cl)ccc1N1CCOCC1,"inconclusive [inhibitor, partial curve]"
13,CCCC[C@@H](CNC)NC[C@H](NCCCCC1CCCCC1)C(C)C,"inconclusive [inhibitor, full curve, poor fit]"
14,NC(N)=Nc1ccc(N=C(N)N)cc1,"inconclusive [inhibitor, partial curve, poor fit]"
15,COc1cccc(/C=N/NC(=O)CSCC(=O)Nc2ccccc2)c1O,"inconclusive [inhibitor, partial curve, poor fit]"
16,CCc1nnc(NC(=O)CSc2nccn2-c2ccccc2)s1,inactive
17,C=CCn1c(=NC(=O)C2COc3ccccc3O2)sc2cc(S(N)(=O)=O)ccc21 (configuration not stated),inactive
18,CCn1cc(C2=NOC(C(=O)Nc3ccc4c(c3)OCO4)C2)c(C)n1 (configuration not stated),"inconclusive [inhibitor, single point]"
19,Cc1ccccc1NC(=O)C(c1ccccc1)C1CCCC1 (configuration not stated),"inconclusive [inhibitor, single point]"
20,CCc1cccc(CC)c1NC(=S)Nc1ccccc1,"inconclusive [inhibitor, single point]"
21,CNC(=O)c1cc(C)c(-c2ccccc2)s1,"inconclusive [inhibitor, single point]"
22,CCCN(CC(=O)Nc1ccccc1OC)C(=O)c1ccc(S(=O)(=O)NCc2ccco2)cc1,"inconclusive [inhibitor, single point]"
23,COc1ccc(C2Nc3ccccc3C(=O)N2C2CCCCC2)cc1 (configuration not stated),"inconclusive [inhibitor, partial curve, poor fit]"
24,O=C(O)c1ccc2c(c1)C(=O)N(c1ccc([N+](=O)[O-])cn1)C2=O,inactive

row,SMILES,Potency
1,CC(=O)N1CCc2cc(S(=O)(=O)CCC(=O)NCCc3ccc(Cl)cc3)ccc21,"inconclusive [inhibitor, partial curve, poor fit]"
2,CSc1cccc(NC(=O)C2CCN(S(=O)(=O)c3ccc4c(c3)NC(=O)CO4)CC2)c1,inactive
3,COc1ccccc1OCCCN1C(=O)C(=O)c2cccc(C)c21,"inconclusive [inhibitor, single point]"
4,C=CCN(CC=C)C(=S)NC(=O)c1ccc(OC)cc1,"inconclusive [inhibitor, single point]"
5,COc1ccc(C(O)C(CN2CCOCC2)c2ccccc2)cc1 (configuration not stated),"inconclusive [inhibitor, partial curve]"
6,COc1ccccc1-c1nnc2n1N=C(C(C)(C)C)CS2,"inconclusive [inhibitor, partial curve, poor fit]"
7,CS(=O)(=O)c1sc2nc(-c3ccccc3)cc(-c3ccccc3)c2c1N,active: 4.65 µM
8,CCC(C(=O)NC1CCCCCC1)n1nc(C)c2c(C)n(-c3ccccc3)nc2c1=O (configuration not stated),"inconclusive [inhibitor, single point]"
9,Cc1cc2ncn(/N=C/c3ccc([N+](=O)[O-])s3)c2cc1C,active: 2.62 µM
10,O=c1[nH]c(=O)n(C2CCCO2)cc1Br (configuration not stated),"inconclusive [inhibitor, single point]"
11,COc1ccc(C2C3=C(CC(c4ccco4)CC3=O)Nc3ccccc3N2C(C)=O)cc1 (configuration not stated),inactive
12,Cc1ccccc1Cn1cnc2c(cnn2C(C)(C)C)c1=O,inactive
13,NC(=O)CC(NC(=O)c1ccccc1)c1ccc(NCCc2ccc(F)cc2)c([N+](=O)[O-])c1 (configuration not stated),"inconclusive [inhibitor, partial curve]"
14,CC(=O)Nc1cccc(NC(=O)Nc2ccc(F)cc2F)c1,inactive
15,Cn1c(-c2ccc(F)cc2)cnc1NCc1ccccc1F,"inconclusive [inhibitor, single point]"
16,CCCNC(=O)c1ccc(N2CCC3(CC2)CC(c2ccccc2)=NO3)c(NC(=O)c2ccc(Br)cc2)c1,"inconclusive [inhibitor, full curve, poor fit]"
17,O=C(CNC(=O)c1ccco1)Nc1ccc(Br)cc1,inactive
18,Cc1cccc(NC(=S)NCCc2ccccn2)c1,"inconclusive [inhibitor, single point]"
19,Cc1ccc(-c2csc(NC(=O)CN3CC(C)OC(C)C3)n2)cc1 (configuration not stated),inactive
20,C=CCN=C1S/C(=C\c2ccc(N(C)C)cc2)C(=O)N1CC=C,inactive
21,CCOC(=O)C1(Cc2ccc(OC)cc2)CCN(C(=O)c2ccoc2C)CC1,"inconclusive [inhibitor, partial curve]"
22,Cc1ccc(-n2c(C)cc(/C=N/NC(=O)c3ccncc3)c2C)cc1C,active: 10.4 µM
23,COc1ccc(C)cc1NC(=O)C(Sc1ccccc1)c1ccccc1 (configuration not stated),"inconclusive [inhibitor, single point]"
24,Cc1cccc(C)c1NC(=O)c1ccc(N2CCCC2=O)cc1,inactive
